Laboratory results from PubChem BioAssay AID1240 (Sanford-Burnham Center for Chemical Genomics, 2008).
Hit rate of the full screen: of about 50,000 compounds, about 800 (1.6%) showed an effect of 50% or more. The list shows a part of the results.

Molecular target: Bcl-2-like protein 10 (Homo sapiens) (UniProt Q9HD36)
Assay: Phenotype converters, Bcl-B/TR3 peptide binding displacement, primary biochemical FP (AID 1240);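 also: 0% = Bcl-B with tracer peptide and DMSO and 100% = tracer peptide lacking Bcl-B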
Details: GST-Bcl-B / FITC-TR3 peptide fluorescence polarization; stronger effect = higher value; compound at 3.75 mg/L

UniProt Q9HD36, sequence (Q9HD36 whole entry, looked up): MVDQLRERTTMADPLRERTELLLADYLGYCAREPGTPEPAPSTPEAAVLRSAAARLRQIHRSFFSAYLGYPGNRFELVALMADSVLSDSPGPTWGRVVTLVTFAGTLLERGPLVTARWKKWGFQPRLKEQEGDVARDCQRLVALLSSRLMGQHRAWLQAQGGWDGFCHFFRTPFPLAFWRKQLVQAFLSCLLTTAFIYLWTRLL

| SMILES | displacement |
| --- | --- |
| Cc1ccc(-n2c(=O)c3c4c(sc3n3cnnc23)COC(C)(C)C4)cc1 | -1.3% |
| O=C(COc1ccc(Br)cc1)Nc1cccc2nsnc12 | 1.9% |
| Cc1onc(-c2ccccc2Cl)c1C(=O)Nc1nn[nH]n1 | -6.5% |
| CCOC(=O)C1=C(C)N(CCOC)C(=O)/C1=C\c1ccc(O)c(OCC)c1 | 7.8% |
| Cc1oc2ccc(OC(=O)c3ccc([N+](=O)[O-])cc3)cc2c1C(=O)OC(C)C | 8.3% |
| O=C(CN1C(=O)/C(=C/c2ccccc2Cl)SC1=S)Nc1cccc(O)c1 | -10.5% |
| CCOC(=O)NC12CC3CC(C)(CC(C)(C3)C1)C2 | 4.3% |
| O=C1c2cccc3cccc(c23)C(=O)N1CCC(=O)n1nnc2ccccc21 | 7.6% |
| COc1ccc(CN2CCN(Cc3c[nH]c4ccccc34)CC2)cc1 | -1.7% |
| CCCOc1cccc(C(=O)Nc2scc(-c3ccccc3)c2C(=O)OC(C)C)c1 | -6.4% |
| CN(CCC(=O)NC1CC(C)(C)N(C)C(C)(C)C1)C1CC(C)(C)N(C)C(C)(C)C1 | -3.5% |
| CC(=O)Oc1ccc2c(C)cc(=O)oc2c1I | -1.7% |
| O=C(Nc1ccc2c(c1)OCO2)c1cccc(I)c1 | 8.9% |
| O=C1/C(=C/c2ccc(-c3ccccc3[N+](=O)[O-])o2)SC(=S)N1c1cccc(C(F)(F)F)c1 | -3% |
| COc1cccc(-n2c(O)c(C=Nc3ccccc3F)c(=O)[nH]c2=O)c1 | -18.9% |
| COc1ccc(S(=O)(=O)N2CCN(Cc3ccc(OC)c(OC)c3)CC2)cc1 | -2.2% |
| CC(C)(C)NC(=O)c1cccc(N2C(=O)c3cccc([N+](=O)[O-])c3C2=O)c1 | -12.5% |
| COc1cc(/C=N/NC(=O)CCNc2n[nH]c(=O)[nH]c2=O)cc(Br)c1O | 8.1% |
| Cc1ccc(-c2nc3ccccc3o2)cc1NC(=S)NC(=O)/C=C/c1ccccc1 | 0.3% |
| O=C(/C=C/c1ccccc1)N1CCN(Cc2ccc3c(c2)OCO3)CC1 | 5.2% |
| COc1ccc(Cl)cc1C(=O)Nc1ccncc1 | 7.9% |
| CC(C)CNC(=O)C1CN(S(=O)(=O)c2ccccc2)CCN1S(=O)(=O)c1ccccc1 (stereo unspecified) | 4.4% |

| SMILES | displacement |
| --- | --- |
| O=C1CSC(c2cn(-c3ccccc3)nc2-c2ccccc2)N1Cc1ccc(Cl)cc1 (stereo unspecified) | -7.2% |
| Cn1ccc(=O)c2cc(Br)ccc21 | 11.9% |
| COc1ccc(CCNC(=O)C(=O)NCc2ccncc2)cc1 | 11.7% |
| Cc1ccc2nc(-c3ccc(NC(=O)COc4ccc([N+](=O)[O-])cc4)cc3)sc2c1 | 6.3% |
| O=C1c2ccc(-c3ccc4c(c3)C(=O)N(c3ccccn3)C4=O)cc2C(=O)N1c1ccccn1 | 3.9% |
| C/C(=N\N1CCN(Cc2cccc3ccccc23)CC1)c1cccs1 | -7.4% |
| CCOc1ccccc1NC(=O)COc1c(C)cc(C)cc1C | 10.7% |
| O=C1CC(c2ccccc2)CC2=C1C(c1ccc([N+](=O)[O-])cc1)Nc1ccc(C(=O)c3ccccc3)cc1N2 (stereo unspecified) | 7.7% |
| COc1ccc(-n2nc3cc(C)c(NC(=O)COc4ccc(Cl)cc4Cl)cc3n2)cc1 | 2.4% |
| c1ccc(CNc2ccc(-c3nc4ccccc4o3)cc2)cc1 | 1.2% |
| COc1cccc(OCCOCCN2CCN(C)CC2)c1 | -3.9% |
| O=C(Nc1cccc([N+](=O)[O-])c1)c1ccc(-c2ccc(Cl)cc2)o1 | 9% |
| CC(=O)NC1=NN(C(C)=O)C(c2ccccc2OC(C)=O)S1 (stereo unspecified) | -0.9% |
| Cc1ccc(C(=O)Nc2ccc(N3CCOCC3)cc2)cc1C | 0.3% |
| COC(=O)C1=C(C)N(Cc2ccccc2)C(=O)/C1=C\c1cccs1 | 6.6% |
| COC(=O)c1c(C)oc2ccc(OC(=O)c3c(C)oc4ccc(OC(C)=O)cc34)cc12 | 11.7% |
| COC(=O)C1=C(C)N(C)C(C)=C(C(=O)OC)C1c1ccccc1Cl | -4.2% |
| COC(=O)/C(=C/C(=O)c1ccc(C)cc1)Nc1ccc(Br)cc1 | -4.8% |
| O=c1cnnc(N/N=C/c2ccccc2Br)[nH]1 | -12.1% |
| CCOc1ccc(S(=O)(=O)N(CC(=O)Nc2ccc(OC)cc2OC)c2ccc(C)cc2)cc1 | -6% |
| Cn1c(=O)c([N+](=O)[O-])c(NCC2CCCO2)c2ccccc21 (stereo unspecified) | -10.3% |
| COc1ccc(-c2cc(C(F)(F)F)n3ncc(C(=O)N4CCOCC4)c3n2)cc1OC | 5.2% |

| SMILES | displacement |
| --- | --- |
| Cc1cc(Cl)ccc1OCC(=O)O/N=C(\N)c1ccc(Br)cc1 | -8.2% |
| COc1ccc(OCCC(=O)c2ccc(OC)c(OC)c2)cc1 | 9.8% |
| COCCOC(=O)c1ccc(NC(=O)c2ccccc2CCc2ccccc2)cc1 | 7.1% |
| CCc1ccccc1N=CC1=C(O)CC(c2ccccc2)CC1=O (stereo unspecified) | 13.6% |
| CS(=O)(=O)N(Cc1ccc(Cl)cc1)c1ccc(C(=O)N2CCCC2)cc1 | 9.7% |
| CCOC(=O)c1c(C)oc2cc(Br)c(O)c(CN(C)C)c12 | 13.6% |
| COc1ccc(C(N)=O)cc1NC(=O)COc1ccc(F)cc1 | 2.3% |
| COc1ccc(NC(=S)NC(=O)c2ccc(F)cc2)cc1 | 9.1% |
| O=C(Nc1ccc(Cl)c([N+](=O)[O-])c1)c1ccc2c(c1)OCO2 | -7.2% |
| COc1ccc(C(NC(=O)c2ccc(C)cc2)NC(=O)c2ccc(C)cc2)cc1OC | -4.8% |
| O=S(=O)(Nc1ccc(Cl)c2cccnc12)c1ccccc1 | 10.4% |
| Cc1ccc([N+](=O)[O-])cc1NC(=O)COc1cccc(Cl)c1 | -5.6% |
| CCn1c2ccccc2c2cc(NS(=O)(=O)c3ccccc3[N+](=O)[O-])ccc21 | 1.4% |
| O=C(NCc1cccnc1)c1c(Cl)cccc1Cl | 9.6% |
| Cc1ccc(/C=C2/SC(=S)N(CC(=O)O)C2=O)cc1 | -2.1% |
| COc1ccc(NC(=O)CN(CCc2ccccc2)S(=O)(=O)c2ccccc2)cc1Cl | 7.8% |
| COC(=O)c1ccc(/C=C2\C=C(c3ccc(Cl)cc3)OC2=O)cc1 | 1.9% |
| COc1ccc(/C=C/C(=O)O)cc1S(=O)(=O)NCc1ccccc1 | 7.2% |
| CC(C)(C)CC(C)(C)NC(=O)CSc1nc2ccccc2[nH]1 | -15.4% |
| COc1ccc(C2CC(c3ccc(C)cc3)=NN2C(C)=O)cc1 (stereo unspecified) | 13.5% |
| Cc1cc(Cl)ccc1OCCCC(=O)NC1CCCCC1 | -12.9% |
| O=C(O)c1cccc(NC2=C(Cl)C(=O)N(c3ccc(Cl)cc3)C2=O)c1 | 32% |

| SMILES | displacement |
| --- | --- |
| CC(C)N(C(=O)c1ccc(Cl)cc1Cl)C(C)C | -5.4% |
| N#C/C(=C\c1ccco1)c1nn(CCO)c(N)c1C#N | -47.1% |
| CSc1ccc(C2Nc3ccccc3NC3=C2C(=O)CC(C)(C)C3)cc1 (stereo unspecified) | 5.7% |
| Cc1cc(OCC(=O)Oc2ccccc2)c([N+](=O)[O-])cc1Cl | -6.8% |
| CC(C)c1ccc(/C=C2\SC(=S)NC2=O)cc1 | -7.7% |
| Cc1nc(-c2ccccc2)sc1C(=O)Nc1ccc(Br)cc1 | 11.6% |
| O=C(Nc1cccc(O)c1)c1cc2nc(-c3ccc(F)cc3)cc(C(F)(F)F)n2n1 | 1.7% |
| CCN(c1ccccc1C(=O)O)S(=O)(=O)/C=C/c1ccccc1 | 6.6% |
| O=C(Nc1cccc(C(F)(F)F)c1)/C(=C/c1cccnc1)NC(=O)c1cccc(Br)c1 | -7% |
| Nc1ccccc1C(=O)N1CCN(c2ccc(F)cc2)CC1 | -10.4% |
| CN(C)c1ccc(C2/C(=C(\O)c3ccc(Cl)cc3)C(=O)C(=O)N2CCCCCC(=O)O)cc1 (stereo unspecified) | -10% |
| CCOc1cccc(/C=N\NC(=O)c2cnccn2)c1O | -26.1% |
| COc1ccc(/C=C/C(=O)Nc2nc3ccccc3s2)cc1S(=O)(=O)N1CCCCC1 | -10.3% |
| COc1ccc(/C(O)=C2\C(=O)C(=O)N(CCc3ccccc3)C2c2ccc(C)cc2)cc1 (stereo unspecified) | 8.4% |
| COc1ccc(CC(=O)Nc2ccc(NC(=O)c3ccc(C(C)(C)C)cc3)cc2)cc1OC | 7.2% |
| CCOC(=O)c1c(N)sc(C(=O)Nc2ccc(Cl)cc2)c1C | 40.1% |
| CCOC(=O)CSc1nc2sc3c(c2c(=O)n1Cc1ccccc1)CCc1ccccc1-3 | -3.7% |
| O=C1CSC2(C(=O)Nc3ccccc32)N1c1cccc(Cl)c1 (stereo unspecified) | 14.1% |
| O=C(CSc1nnc(-c2ccncc2)n1-c1ccccc1)c1ccc([N+](=O)[O-])cc1 | 5.9% |
| O=C1OC(c2ccccc2Br)=N/C1=C\c1cccnc1 | 4.7% |
| S=C(Nc1ccccc1)N1CCc2ccccc21 | -4.7% |
| CC(=O)c1ccc(N2C(=O)CC(SC(=NCCc3ccccc3)Nc3ccc(F)cc3)C2=O)cc1 (stereo unspecified) | -8% |

| SMILES | displacement |
| --- | --- |
| COc1ccc(C2/C(=C(/O)c3ccccc3)C(=O)C(=O)N2c2cccc([N+](=O)[O-])c2)c(OC)c1 (stereo unspecified) | -0.7% |
| COc1c(Br)cc(Br)cc1/C=N/NC(=O)COc1ccccc1[N+](=O)[O-] | 8.4% |
| Cc1cccc(N2C(=O)NC(=O)/C(=C/c3ccc(Cl)c(Cl)c3)C2=O)c1 | -18.1% |
| O=C1CCCC2=C1C(c1cccc([N+](=O)[O-])c1)Nc1ccccc1N2 (stereo unspecified) | 0.9% |
| CC(C)c1ccc(/C=C/C(=O)N2CCN(c3ccc(F)cc3)CC2)cc1 | 9.6% |
| Cc1ccc(-c2cc(NC(=O)c3ccncc3)n[nH]2)cc1 | 6.7% |
| Cc1ccc(N2C(=O)C(Cl)=C(N3CCN(c4ccccc4)CC3)C2=O)c(C)c1 | 8.6% |
| Cc1cc(C)cc(N2C(=O)NC(=O)/C(=C\c3cc(Cl)c(OCC(=O)O)c(Cl)c3)C2=O)c1 | -13.5% |
| CCCC(=O)Nc1ccc(NC(=O)c2cccc3c(Br)cccc23)cc1 | 6.4% |
| Oc1ccc2ccccc2c1C1NN=C(c2ccccc2)S1 (stereo unspecified) | -7.7% |
| Cc1nc2ccccc2n1C1CC(=O)N(c2ccc(Br)cc2)C1=O (stereo unspecified) | -4.7% |
| c1ccc(Nc2nc3c(s2)CCc2ccccc2-3)cc1 | 28.6% |
| COc1cccc(OCCNc2cc(Cl)ccc2[N+](=O)[O-])c1 | 15% |
| CSc1n[nH]c(NC(=O)c2cc(F)c(F)c(F)c2F)n1 | -8.5% |
| O=c1oc2cc(O)c(Cl)cc2c2c1CCCC2 | 3.9% |
| Cc1ccc(C(=O)NNC(=O)C2CCCO2)cc1 (stereo unspecified) | -13.5% |
| O=C1c2ccccc2C(=O)c2c1cc(Cl)cc2N1CCCCC1 | 2.8% |
| O=C(c1cc(-c2ccccc2)nc2ccccc12)N1CCOCC1 | 4.5% |
